# Experimental data: the supplement of paper PMC3334620
# In all, about 33,000 sequences were measured (“E-score (-0.5 to 0.5)”: median about -0.04, highest 2% from about 0.36 on). The list shows a part of the results.
# Molecular target: T1, Hmlalpha2 (UniProt P0CY09)
# T1 sequence: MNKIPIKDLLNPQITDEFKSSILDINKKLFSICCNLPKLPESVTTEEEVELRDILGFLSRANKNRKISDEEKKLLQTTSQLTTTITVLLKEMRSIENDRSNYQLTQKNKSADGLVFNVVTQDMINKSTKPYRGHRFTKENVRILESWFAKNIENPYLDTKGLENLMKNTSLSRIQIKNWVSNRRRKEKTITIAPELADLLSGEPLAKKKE
# Assay: PBM E-score (8-mer binding enrichment) (E-score (-0.5 to 0.5)); higher = stronger / more preferred TF binding; most listed sequences are background and not binding sites
# Conditions: protein concentration: 200 nM; construct: GST-full length
# Procedure, shortened: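 Universal all-10-mer Agilent arrays, fresh or stripped once, were converted to double-stranded form by primer extension. GST-tagged yeast transcription factors from PURExpress in vitro transcription/translation, full-length or DNA-binding domain only, were applied at about 100-200 nM and detected with fluorescent anti-GST. After masliner normalisation, the Universal PBM Analysis Suite scored each ungapped eight-base word together with its reverse complement by E-score.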
row,Sequence,PBM E-score
1,TAGCAATA,0.182
2,ACCAAAGA,0.107
3,CACTACTC,0.0391
4,AATATTTA,0.207
5,ATGCACTG,0.0249
6,GGCATTGA,-0.0172
7,AAATTCGA,-0.146
8,TCCACACA,0.146
9,AGATCGAC,-0.00654
10,CAGTGTCG,-0.102
11,CTAAAAAG,-0.0792
12,GCCAAGGC,-0.373
13,CCAAATGA,0.0486
14,GCAGTCAA,-0.18
15,AGCTGGGC,-0.218
16,GATCATTA,0.19
17,AGCGGAAT,0.0242
18,CGAACGCC,-0.239
19,ACACGGTC,0.397
20,AGTTACAG,0.0744
21,CACGATAG,0.0888
22,CACACAGC,0.201
23,CCTGAATA,0.13
24,AATATTGC,0.163
25,AATGACGA,0.148

row,Sequence,PBM E-score
1,AAATGTGA,0.134
2,AGCGCTCA,-0.199
3,CCTTGTCA,0.179
4,ACTCTCAC,-0.0198
5,AGATACTG,0.0776
6,AATTGCGT,0.201
7,CATAATAA,0.281
8,ACCGTATA,-0.0532
9,AAGCCGCT,-0.258
10,ATAGAAAA,0.0719
11,AGACGGAT,0.0382
12,CAGAGGCA,-0.101
13,CGAATTCG,-0.188
14,GAACGCGA,0.147
15,AGAGCAGA,0.0438
16,CGCGCACC,-0.0573
17,ATATGTAC,0.337
18,CGTCCAGA,-0.227
19,GCATATCC,-0.107
20,AGTATAAT,0.123
21,CTCGCCGA,-0.16
22,ACGTGTAC,0.382
23,CAATCCAA,-0.0874
24,AGGCGTTA,0.00303
25,ATCGGATC,-0.0781

row,Sequence,PBM E-score
1,CAAAGATA,-0.042
2,TACTACCA,-0.0546
3,GACTACTC,-0.0288
4,CCGTGCAG,0.0738
5,CCGGACAC,-0.247
6,ATCTTGCA,0.133
7,GAAGCACC,-0.191
8,AACCGGGT,-0.0442
9,ACACAGAA,0.168
10,CAGGTCAG,-0.303
11,GCAGGTCA,-0.206
12,AAGCAGCC,-0.315
13,GGAAACGA,-0.0281
14,TCCGCCGA,-0.0873
15,AACCGGTT,0.15
16,AATGCCAT,0.022
17,AGAATTAA,0.0413
18,ACGCTCTC,0.037
19,TCATATGA,0.0929
20,CTAACGTA,0.255
21,GGTATCTA,0.0627
22,GTAATTAA,0.326
23,AGAGTGAC,-0.195
24,AGGCTTTC,-0.00583
25,ACAACTTG,0.107

row,Sequence,PBM E-score
1,CGTTGAGA,0.0342
2,CTATGTCA,0.333
3,ACTATTGG,-0.206
4,CCTAATGA,0.0161
5,ACCCTTGC,-0.209
6,ACACCACA,0.211
7,GATTATGC,-0.257
8,ACGGCAAC,0.0456
9,GATATAAA,0.00631
10,CCCGAGCG,-0.121
11,AAGAACCT,-0.059
12,ATGGAATG,-0.161
13,AACGCACC,0.0799
14,ACTGTATC,0.00434
15,ATCTTCGC,-0.0673
16,GGAAATAA,0.0703
17,AAAAGGGG,-0.174
18,ATACAGTC,-0.194
19,GGGGTGTA,0.0612
20,CGCCATCA,-0.194
21,CGGGTTAA,0.188
22,CATGACGG,0.0417
23,AGCACCTA,-0.122
24,CCCCGGCA,-0.149
25,CATTACAG,0.326

row,Sequence,PBM E-score
1,AGGCATAG,-0.091
2,TCGTAGAA,0.115
3,ATAGGTGC,-0.0929
4,CGAGATAA,0.183
5,ATTGATTC,0.163
6,ATAGCGTG,0.14
7,ACACATGA,0.304
8,ACCGTCTG,-0.167
9,AGGATAGC,-0.0929
10,TCAACTGA,-0.0509
11,AAATGGTG,0.122
12,AACAGAAC,0.0502
13,TAGAAGGA,-0.237
14,AGGCTCTG,-0.253
15,CACCTTAC,0.0205
16,CCGGGCCG,-0.376
17,TATCCAGA,-0.0811
18,AGCCGACC,-0.197
19,CATTAGCC,-0.255
20,CCACTGAA,-0.0157
21,CGTTGAAA,0.0902
22,GCTCTCTA,-0.103
23,GCGTAAAA,0.4
24,ATGCGATG,0.0118
25,ACGAGATG,-0.04

row,Sequence,PBM E-score
1,TCACCAAA,0.0678
2,CTTTTAGC,-0.105
3,GGATGATA,-0.168
4,AACTCTAA,0.0318
5,CTGGCCAG,-0.123
6,CTCTAAAC,-0.0126
7,GCGAGCAA,-0.287
8,CGCAAATC,-0.171
9,CGCCGCAC,-0.0716
10,CGACTGTC,-0.179
11,AAGCCTGT,0.0273
12,CTGCCACA,-0.201
13,AGCACAAG,0.0394
14,ACGCTCAA,0.117
15,CGCGCCCG,-0.241
16,ATTTCCGC,-0.143
17,CGAGAGCA,-0.0155
18,AGATCCGA,-0.141
19,ATCCCCTA,-0.39
20,AGACCGGA,-0.241
21,AATTTCCC,-0.117
22,CTTGAAAA,0.0455
23,AACCGGTC,-0.185
24,GTTACCTA,0.0633
25,CGAAAACA,0.31

row,Sequence,PBM E-score
1,CAGGCTAA,-0.0418
2,CGGTACTA,-0.199
3,TGCATACA,0.3
4,CTACTAAG,-0.0656
5,GTAGTCTA,0.164
6,TAAATTGA,0.188
7,ATCCCGAA,-0.138
8,AATGTTCT,0.144
9,AGAGCATG,0.196
10,AGTAAACT,0.177
11,AAATAGGT,0.129
12,AGCGCGTA,0.388
13,ACCTGAAG,-0.192
14,GCGGACGA,-0.0131
15,AAGTCATG,0.17
16,AAATGAGA,0.0578
17,CACTGAGA,-0.132
18,ACACATTC,0.242
19,CGGCAGAG,-0.219
20,AATCGTTG,0.135
21,AGAGGGAA,-0.22
22,CCGCAACC,-0.136
23,CCGGAATC,-0.353
24,CGGGGCAC,-0.0886
25,CTACGGCC,-0.335

row,Sequence,PBM E-score
1,CGTTCCCC,-0.0404
2,TGAATGCA,0.0743
3,GGTAACGA,-0.0795
4,ACGTATGA,0.28
5,ACGATTTA,0.244
6,GGAATCCA,-0.283
7,AATATCAT,0.139
8,AATCCTAA,-0.111
9,TCCACAAA,-0.0439
10,ACTCAACT,0.097
11,GATTTTCA,0.0811
12,AGGGGTAG,-0.248
13,AGACAGTA,0.0949
14,GAAAGCTA,-0.195
15,AACGTCTG,-0.038
16,ACCCTACA,0.144
17,CATTCGAC,0.0595
18,CCGCAGGC,0.00351
19,CCTAGTGC,-0.0708
20,AATTGGGC,0.0427
21,AAGCAGAA,-0.0442
22,ACCCCTCC,-0.287
23,AAGCCACT,-0.218
24,AAGGAGAT,-0.222
25,CTAGCAAA,0.0206

row,Sequence,PBM E-score
1,ACGAGACT,0.0617
2,ATTAGGGG,-0.211
3,CGCCCCCA,-0.346
4,ATAGCATA,0.193
5,GCTACTAA,0.124
6,AACGCGGA,0.246
7,GGAGCCAA,-0.293
8,GCCGGGGA,-0.319
9,ACCCGAAC,-0.112
10,ATGGTACA,0.0453
11,AGGGGTTG,-0.253
12,GAAGAAGC,-0.141
13,TGCGACAA,0.125
14,CCGCCAGG,-0.0364
15,TCCTCCCA,-0.199
16,CAGTGAGC,-0.124
17,AGGAAGGG,-0.313
18,CGGCCGTA,-0.182
19,AATCTTGG,-0.0305
